# Some of the results follow.
# Columns and labels:
# HSkMC = human skeletal muscle cells; assay: cytotoxicity call (relative viability < 0.9); conditions: 10 µM
# HepG2 = assay: cytotoxicity call (relative viability < 0.9); conditions: 10 µM
# S. aureus RN4220 = assay: growth inhibition call (relative growth <= 0.2); conditions: 50 µM
SMILES,cytotoxicity call (HSkMC),cytotoxicity call (HepG2),growth inhibition call (S. aureus RN4220)
C/C=C/c1cnc2c(c1)C(=O)N([C@@H](C)CO)C[C@@H](C)[C@H](CN(C)S(=O)(=O)c1ccc(OC)cc1)O2,inactive,inactive,inactive
COc1ccc2c3c([nH]c2c1)[C@H](CO)N(C[C@]13CCN(CC1)C(=O)c1ccncc1)C(=O)c1ccncc1,inactive,inactive,inactive
C[C@@H]1CN([C@H](C)CO)C(=O)c2cc(NC(=O)Cc3ccccc3)ccc2O[C@@H](C)CCCCO[C@@H]1CN(C)Cc1ccc(C(F)(F)F)cc1,inactive,inactive,inactive
CC(C)c1onc(-c2c(Cl)cccc2Cl)c1COc1ccc(C=Cc2cccc(C(=O)O)c2)c(Cl)c1,inactive,inactive,inactive
C[C@@H]1CCCCO[C@@H](CN(C)Cc2ccc(C(=O)O)cc2)[C@H](C)CN([C@H](C)CO)C(=O)c2cc(NC(=O)Cc3ccccc3)ccc2O1,inactive,inactive,inactive
C[C@@H]1CCCCO[C@H](CN(C)Cc2ccc(Cl)c(Cl)c2)[C@@H](C)CN([C@@H](C)CO)C(=O)c2cc(NC(=O)CCC(F)(F)F)ccc2O1,inactive,inactive,inactive
C[C@@H]1CCCCO[C@H](CN(C)C(=O)c2ccccc2)[C@@H](C)CN([C@@H](C)CO)C(=O)c2cc(NC(=O)CCC(F)(F)F)ccc2O1,inactive,inactive,inactive
O=C(O)CCn1ccnc1,inactive,inactive,inactive
CC(C)CC#Cc1ccc2c(c1)O[C@@H](CN(C)C(=O)c1cnccn1)[C@H](C)CN([C@H](C)CO)S2(=O)=O,inactive,inactive,inactive
C[C@@H]1CCCCO[C@@H](CN(C)C(=O)Nc2ccc(F)cc2)[C@@H](C)CN([C@H](C)CO)C(=O)c2cc(NC(=O)Nc3ccccc3)ccc2O1,inactive,inactive,inactive
COc1ccc(C#Cc2ccc3c(c2)[C@]2(C(=O)N3)[C@H](c3ccc(O)cc3)N3[C@H](c4ccccc4)[C@H](c4ccccc4)OC(=O)[C@H]3[C@@H]2C(=O)N2CCN(c3ncccn3)CC2)cc1,inactive,inactive,inactive
COc1ccc(S(=O)(=O)Nc2ccc3c(c2)C(=O)N([C@H](C)CO)C[C@H](C)[C@@H](CN(C)S(C)(=O)=O)OCCCC[C@@H](C)O3)cc1,inactive,inactive,inactive
C[C@H]1CN([C@@H](C)CO)C(=O)c2cc(NS(=O)(=O)c3cccs3)ccc2O[C@@H]1CN(C)Cc1ccncc1,inactive,inactive,inactive
COc1ccc(NC(=O)N(C)C[C@H]2OCc3ccccc3-c3c(n(C)c4ccccc34)C(=O)N([C@H](C)CO)C[C@@H]2C)cc1,inactive,inactive,inactive
COc1ccccc1CN1C(=O)c2ccccc2[C@](Cc2ccccc2I)(C(=O)NCC(F)(F)F)[C@@H]1c1ccc(CO)cc1,inactive,inactive,inactive
COc1ccc(S(=O)(=O)Nc2cccc3c2O[C@H](CN(C)Cc2ccc(Oc4ccccc4)cc2)[C@H](C)CN([C@H](C)CO)C3=O)cc1,inactive,inactive,inactive
O=C(C[C@@H]1C[C@@H]2c3cc(NC(=O)c4ccc5c(c4)OCO5)ccc3O[C@@H]2[C@@H](CO)O1)NCCN1CCCCC1,inactive,inactive,inactive
CC1=CC(=O)[N-]S(=O)(=O)O1.[K+],inactive,inactive,inactive
COc1ccc(S(=O)(=O)Nc2ccc3c(c2)C(=O)N([C@H](C)CO)C[C@@H](C)[C@@H](CN(C)S(=O)(=O)c2ccc(OC)cc2)O3)cc1,inactive,inactive,inactive
C[C@@H]1CCCCO[C@H](CN(C)Cc2ccc(C(F)(F)F)cc2)[C@H](C)CN([C@H](C)CO)C(=O)c2cc(NC(=O)CCCN(C)C)ccc2O1,inactive,inactive,inactive
C[C@H](CO)N1C[C@H](C)[C@H](CN(C)C(=O)Nc2ccc3c(c2)OCO3)OCCCC[C@H](C)Oc2ccc(NC(=O)C3CCCCC3)cc2C1=O,inactive,inactive,inactive
C[C@@H]1CN([C@@H](C)CO)C(=O)CCCn2nncc2CO[C@@H]1CN(C)C(=O)CCCN(C)C,inactive,inactive,inactive
O=C(C[C@@H]1C[C@H]2c3cc(NS(=O)(=O)c4ccc(F)cc4)ccc3O[C@H]2[C@H](CO)O1)NCCN1CCCCC1,inactive,inactive,inactive
C[C@@H]1CN([C@@H](C)CO)C(=O)Cc2cc(NC(=O)C3CC3)ccc2O[C@@H]1CN(C)Cc1ccc(Oc2ccccc2)cc1,inactive,inactive,inactive
C[C@H](CO)N1C[C@H](C)[C@H](CN(C)CC2CCCCC2)OCCCC[C@H](C)Oc2ccc(NC(=O)Nc3ccc4c(c3)OCO4)cc2C1=O,inactive,active,inactive
C[C@@H]1CN([C@H](C)CO)C(=O)c2cc(C#CCN(C)C)cnc2O[C@H]1CN(C)C(=O)CCN1CCCCC1,inactive,inactive,inactive
CC(C)c1cc(C(C)C)c(CC(=O)NS(=O)(=O)Oc2c(C(C)C)cccc2C(C)C)c(C(C)C)c1,active,active,inactive

SMILES,cytotoxicity call (HSkMC),cytotoxicity call (HepG2),growth inhibition call (S. aureus RN4220)
COc1ccc(NC(=O)N(C)C[C@H]2Oc3c(NS(=O)(=O)c4c(C)noc4C)cccc3C(=O)N([C@H](C)CO)C[C@H]2C)cc1,inactive,inactive,inactive
C[C@@H]1CN([C@H](C)CO)C(=O)c2cccc(NC(=O)c3cnccn3)c2O[C@H]1CN(C)C(=O)Nc1ccc(F)cc1,inactive,inactive,inactive
C[C@H](CO)N1C[C@H](C)[C@H](CN(C)S(=O)(=O)c2ccc(F)cc2)Oc2ccc(NC(=O)C3CC3)cc2CC1=O,inactive,inactive,inactive
COc1ccc(CN(C)C[C@H]2Oc3ccc(NS(=O)(=O)c4c(C)noc4C)cc3C(=O)N([C@@H](C)CO)C[C@@H]2C)cc1,inactive,inactive,inactive
C[C@@H]1CN([C@@H](C)CO)C(=O)Cc2cc(NS(C)(=O)=O)ccc2O[C@@H]1CN(C)C(=O)Nc1ccc(F)cc1,inactive,inactive,inactive
Cc1cc(C(=O)Nc2cccc3c2O[C@H](CN(C)Cc2ccc4c(c2)OCO4)[C@H](C)CN([C@@H](C)CO)C3=O)n(C)n1,inactive,inactive,inactive
CC(C)NC(=O)N(C)C[C@@H]1OCCCC[C@@H](C)Oc2ccc(NC(=O)Nc3cccc4ccccc34)cc2C(=O)N([C@H](C)CO)C[C@@H]1C,inactive,inactive,inactive
CC1=C(C(=O)O)N2C(=O)C(NC(=O)C(N)c3ccc(O)cc3)C2SC1 (configuration not stated),inactive,inactive,inactive
CS(=O)(=O)N1C[C@H]2C[C@@H](F)[C@H](O)[C@@H]2C1,inactive,inactive,inactive
C[C@@H]1CCCCO[C@@H](CN(C)S(=O)(=O)c2cccs2)[C@@H](C)CN([C@@H](C)CO)C(=O)c2cc(NS(=O)(=O)c3ccc(Cl)cc3)ccc2O1,inactive,active,inactive
C[C@@H]1CN([C@@H](C)CO)C(=O)Cc2cc(NC(=O)Cc3ccccc3)ccc2O[C@@H]1CN(C)Cc1ccc(-c2ccccc2)cc1,inactive,active,inactive
C[C@H](CO)N1C[C@H](C)[C@H](CN(C)Cc2ccc(C(F)(F)F)cc2)OCCCC[C@H](C)Oc2ccc(NC(=O)CCCN(C)C)cc2C1=O,inactive,active,inactive
C[C@@H]1CN([C@H](C)CO)S(=O)(=O)c2ccc(-c3ccc(C#N)cc3)cc2O[C@@H]1CN(C)C(=O)CN(C)C,inactive,inactive,inactive
Cn1c(N)c(C(=O)c2ccco2)c(=O)n(C)c1=O,inactive,inactive,inactive
CCNC(=O)C[C@H]1CC[C@H]2[C@H](COc3ccc(NS(=O)(=O)c4ccccc4C)cc3C(=O)N2C)O1,inactive,inactive,inactive
C[C@@H]1CN([C@@H](C)CO)C(=O)c2cc(NS(=O)(=O)c3cccs3)ccc2O[C@@H]1CN(C)Cc1ccc(Oc2ccccc2)cc1,inactive,inactive,inactive
CC(C)NC(=O)Nc1ccc2c(c1)C(=O)N([C@@H](C)CO)C[C@@H](C)[C@@H](CN(C)CC1CCCCC1)OCCCC[C@H](C)O2,inactive,inactive,inactive
CC(C)NC(=O)N[C@@H]1CC[C@@H](CCN)O[C@H]1CO,inactive,inactive,inactive
CO[C@H]1CN(C)C(=O)c2ccc(NC(=O)Nc3cccc(Cl)c3)cc2OC[C@@H](C)N(C(=O)Nc2c(C)noc2C)C[C@@H]1C,inactive,inactive,inactive
CC(C)CC#Cc1ccc2c(c1)O[C@H](CN(C)C(=O)Cc1cccnc1)[C@@H](C)CN([C@H](C)CO)S2(=O)=O,inactive,inactive,inactive
O=C(C[C@@H]1C=C[C@H](NC(=O)c2ccncc2)[C@H](CO)O1)NCc1ccncn1,inactive,inactive,inactive
Cc1noc(C)c1NC(=O)N(C)C[C@@H]1Oc2ccc(NC(=O)Nc3cccc4ccccc34)cc2CC(=O)N([C@H](C)CO)C[C@H]1C,inactive,inactive,inactive
O=S1(=O)OC(c2ccc(O)cc2)(c2ccc(O)cc2)c2ccccc21,inactive,inactive,inactive
C[C@@H]1CCCCO[C@H](CN(C)S(=O)(=O)c2cccs2)[C@H](C)CN([C@@H](C)CO)C(=O)c2cc(NC(=O)Nc3ccc(C(F)(F)F)cc3)ccc2O1,active,active,inactive
CC(=Cc1ccccc1)C=C1SC(=S)N(CC(=O)O)C1=O,inactive,inactive,inactive
C[C@@H]1CN([C@@H](C)CO)C(=O)c2cc(NC(=O)Cc3ccccc3)ccc2O[C@@H](C)CCCCO[C@@H]1CN(C)Cc1ccc(C(=O)O)cc1,inactive,inactive,inactive
C[C@@H]1CCCCO[C@@H](CN(C)S(C)(=O)=O)[C@H](C)CN([C@H](C)CO)C(=O)c2cc(NC(=O)Nc3cccc4ccccc34)ccc2O1,inactive,inactive,inactive
